# Test results from the supplement of paper PMC10986608.
# Some of the results follow. Single values are uncertain, as repeats are few or missing.
# Test system: Candida albicans DPL-15
# Experiment: growth (OD600) after compound treatment (apparently relative to screen median) (relative growth (fraction; screen median 1.02)); DPL-15 is a caspofungin-resistant clinical isolate; higher = more fungal growth (less antifungal activity)
# Conditions: 25 µM; RPMI 1640; 48 h; 30 °C
row,Structure (SMILES),growth
1,CC#CCCN1C(=O)NC(c2ccccc2)C(C(C)=O)=C1C (stereo not drawn),1.05
2,Cc1ccc(C2C3=C(NC(C)(C)CN=C3C(C)C)C(=O)N2c2ccccc2)cc1 (stereo not drawn),0.937
3,COc1ccc(N2C(=O)c3[nH]nc(CC(C)C)c3C2c2ccccc2Br)cc1F (stereo not drawn),0.901
4,O[C@H]1C[C@@H](c2ccccc2)[C@]2(c3ccc(Cl)cc3)Oc3cc(OCCN4CCCC4)ccc3[C@]12O,1.17
5,CC(=O)C1=C2C=CCCN2C(=O)NC1c1ccc(C)cc1 (stereo not drawn),0.902
6,COC(=O)C1=C(C)N(CCc2cccs2)C(=S)NC1c1ccc(OC)cc1 (stereo not drawn),0.897
7,Cn1nc(-c2ccc(C(F)(F)F)cc2)cc1N,1.02
8,CC(C)OCCCNC(N)=S,1.07
9,O=C(NC(CC1=CCCCC1)c1ccc2c(c1)OCO2)C(F)(F)F (stereo not drawn),1.12
10,COC(=O)C1=C(C)N(Cc2ccc(C(F)(F)F)cc2)C(NCC2CC2)=NC1c1ccc(Cl)cc1 (stereo not drawn),1.06
11,CC[C@@H](C)[C@H]1O[C@]2(CC[C@@H]1C)C[C@@H](O)C[C@@H](CCO)O2,1
12,COc1cc([C@H]2c3c(O)c(O)c4oc5ccccc5c(=O)c4c3[C@@H]3C=C(C)CC(C)(C)[C@H]23)c2c(=O)c3ccccc3oc2c1O,1.02
13,COCCN1C(=O)N[C@@H](c2ccco2)C(C(=O)OC)=C1C,1
14,COc1ccc2c(=O)c3c(CC=C(C)C)cc(OC)c(O)c3oc2c1,1.07
15,CC[C@@H](O)COc1cc2c(cc1C1(c3cc4c(cc3OC[C@H](O)CC)OCO4)C(=O)Nc3c(F)cccc31)OCO2,0.963
16,COC(=O)c1c(-c2ccccc2Br)c2c(c3c4ccccc4n(S(=O)(=O)c4ccc(C)cc4)c13)C(=O)N(C)C2,1
17,COc1ccc(N2C(=O)c3[nH]nc(CC(C)C)c3C2c2ccsc2)cn1 (stereo not drawn),0.949
18,CC1(C)COC2(OC1)C(CO[Si](C)(C)C(C)(C)C)=C[C@H](O)[C@@H]1O[C@@H]12,0.893
19,COC(=O)C1=C(CCl)NC(=O)N(C(C)=O)C1c1ccccc1 (stereo not drawn),1.27
20,CCOCN1CC(=O)N(COCC)CC1=O,1.18
21,COC(=O)C1=C(C)N(Cc2ccccc2)C(=S)NC1c1cccc(Br)c1 (stereo not drawn),0.946

row,Structure (SMILES),growth
1,COc1cc2c(cc1OC)CN(CCc1ccc(NC(=O)c3cccc4c(=O)c5cccc(O)c5[nH]c34)cc1)CC2,0.858
2,O=c1c(O)c(-c2ccccc2Br)oc2ccccc12,1.79
3,COc1ccc([C@@H]2[C@@H](C(=O)Nc3ccccc3)[C@H](C(=O)Nc3ccccc3)[C@H]2c2ccc(OC)c(OC)c2OC)c(OC)c1OC,1.07
4,C=CCNC1=NC(CCc2ccccc2)C(C(=O)OC)=C(C)N1C (stereo not drawn),0.802
5,C=CCC1=C(OC)[C@]2(CC=C)CC(=C)C[C@](C(=O)C(C)C)(C1=O)C2=O,1.16
6,CC1=C(C(N)=O)C(c2cccs2)NC(=O)N1 (stereo not drawn),0.969
7,CC(C)CC(CCc1ccccc1)OS(=O)(=O)NC(C)(C)C (stereo not drawn),0.821
8,CC#CCN1C(=O)NC(c2ccccc2)C(C(=O)OC)=C1C (stereo not drawn),0.949
9,COc1cccc(CO[C@H]2CC=C(c3ccc(Br)cc3)O[C@@H]2CO)c1,0.873
10,CNC(=O)[C@@H]1C[C@@]2(c3c(C=O)[nH]c4ccccc34)c3ccccc3N(C(=O)OCc3ccccc3)[C@H]2N1C(=O)OC(C)(C)C,0.888
11,O=Cc1c(O)c(C=O)c(O)c(C(c2ccccc2)N2CCOCC2)c1O (stereo not drawn),0.907
12,CC1=C[C@H]2[C@@H]3CO[C@@]2(C)[C@@](C)(C3)C1=O,0.981
13,CC1=NCCNC2=C1C(c1ccc(C)cc1)NC2=O (stereo not drawn),1.07
14,COc1cc(OC)c(OC)cc1/C=C/C(C)=O,0.977
15,Cc1nn(C)c2c1C(c1ccc(F)cc1)NC2=O (stereo not drawn),1.07
16,COc1ccccc1C#C[C@@H]1C=C[C@@H](OC(C)=O)[C@@H](COC(C)=O)O1,0.89
17,C=CCN1C(=O)C2=C(C(C)=NCC(C)(C)N2)C1c1cccc(C(F)(F)F)c1 (stereo not drawn),0.938
18,COc1ccc(I)c2oc(C(=O)O)cc(=O)c12,1.08
19,O[C@@H](c1ccccc1I)c1cc2c3c(ccc4c3c1OCO4)OCO2,1.07
20,CC(C)Oc1cc2c(cc1C1(c3cc4c(cc3OC(C)C)OCO4)C(=O)Nc3cc(F)ccc31)OCO2,0.932
21,COC(=O)C1=C(CCl)NC(=O)NC1c1cccc(C#N)c1 (stereo not drawn),1.07

row,Structure (SMILES),growth
1,Cc1cc2c(c(=O)o1)[C@@]1(C(=O)N(C)c3cccc(Br)c31)C1=C(CCCC1=O)O2,0.976
2,CCc1ccccc1-n1nc(C)c2c1C(=O)NC2c1ccc(C)cc1 (stereo not drawn),1.07
3,CC(C)Cc1n[nH]c2c1C(c1ccc(F)cc1)N(Cc1ccc(C(F)(F)F)cn1)C2=O (stereo not drawn),1.03
4,C=C1CC[C@H]2[C@@H]3C4=C(O[C@]3(C(C)C)O[C@]2(C)CC[C@@H]2[C@@H]1CC2(C)C)C(C)(C)C(=O)C(C)(C)C4=O,0.92
5,C=C(C)C[C@@]1(c2ccccc2)Oc2ccccc2C2=NCCN=C21,0.97
6,COc1ccc(C2=C(C(=O)NCCN3CCOCC3)C3C(N2)C(=O)C[C@@H](c2ccccc2)[C@@H]3C)cc1 (stereo partly drawn),1
7,COc1cc(O)c(C(=O)COCc2ccccc2)c(OC)c1,0.912
8,CC(C)CCOS(=O)(=O)NCC(F)(F)F,1.12
9,COC(=O)C/C=C/[C@@H](C)[C@H](NC(=O)[C@@H](N)C(C)C)c1ccccc1,1.03
10,CCN(CC)C(=O)c1c(O)cc(O)cc1CC(=O)c1ccccc1,1.03
11,O=C1CC2(CCCCC2)CNC(=O)c2cccc(c2)-c2[nH]ncc2COC[C@H](c2ccccc2)N1,1.04
12,COC(=O)C1=C(C)N(Cc2cccc(C(F)(F)F)c2)C(NCCc2cccs2)=NC1c1ccc(Cl)cc1 (stereo not drawn),1.01
13,C[C@@H]1/C=C/CC(=O)OCCCC(=O)N[C@@H](Cc2ccc(O)cc2)C(=O)N[C@@H]1/C=C/c1ccccc1,0.718
14,Cc1cc(C)cc(-n2nc(C)c3c2C(=O)NC3c2ccc3c(c2)OCO3)c1 (stereo not drawn),0.963
15,CC(C)C1=NCCNC2=C1C(c1ccc(F)cc1)NC2=O (stereo not drawn),0.994
16,CC(=O)C1=C(C)N(Cc2ccc(Cl)cc2)C(=S)NC1c1ccccc1Cl (stereo not drawn),0.829
17,C=Cc1cc(O[Si](C)(C)C(C)(C)C)ccc1[C@@H]1CCC2(OCCO2)[C@H]1O,0.866
18,CC#CCOc1c(-c2ccccc2)oc2cccc(OC)c2c1=O,0.82
19,CCOC(=O)C(c1ccc(OC)c(OC)c1)C1c2ccccc2C=C(C)N1C(=O)OC (stereo not drawn),0.947
20,COc1ccc([C@@H]2[C@@H](C(=O)NC3CCCC3)[C@@H](C(=O)NC3CCCC3)[C@@H]2c2ccc(OC)c(OC)c2)cc1OC,0.891
21,CCCCC1=CC2=C(OC(C)=O)C(=O)C(C)(OC(=O)C3CCCC3)C(=O)C2=CO1 (stereo not drawn),1.12

row,Structure (SMILES),growth
1,Cc1cc(O)c2c3c4c(cc(O)c13)O[C@@]1(CCCO1)[C@H](/C=C/CCOC(=O)c1ccccc1)[C@H]4OC2=O,1
2,COCCN1C(NCc2ccc(C(F)(F)F)cc2)=NC(c2ccccc2)C(C(=O)OC)=C1C (stereo not drawn),1.17
3,CO[C@H]1CCN(C(=O)c2c(O)cc(O)cc2Nc2cnn(C(C)C)c2)C1,1.13
4,COc1ccc(N2C(=O)c3[nH]nc(CC(C)C)c3C2c2ccccc2OC)cc1 (stereo not drawn),0.984
5,COC(=O)C1=C(C)N(C)C(NCC2CC2)=NC1c1ccc(Cl)cc1 (stereo not drawn),0.769
6,C=CCN1C(=O)C2=C(C(c3ccccc3)=NCCN2)C1c1ccc2c(c1)OCO2 (stereo not drawn),0.977
7,C=CCC1=C(O)[C@](CC=C)(C[C@H](CC=C)C(=C)C)C(=O)C(C(=O)c2ccccc2)=C1O,1.69
8,COC(=O)[C@H]1[C@@H](O)[C@@]2(O)c3c(OC)cc(O)cc3O[C@@]2(c2ccc(Br)cc2)[C@@H]1c1ccccc1,1.11
9,COC(=O)[C@@H]1[C@@H](c2ccccc2)[C@]2(c3ccc(OC)cc3)Oc3cc(OC)cc(OC)c3[C@@]23NC(CCl)=N[C@@]13O,1.09
10,CC1(C)[C@H]2CC[C@]1(C)[C@H](OS(=O)(=O)NCC(F)(F)F)C2,1.37
11,CC1=NCCN(C)C2=C1C(c1ccc(Br)cc1)N(c1ccccc1)C2=O (stereo not drawn),0.95
12,NCC1CCCN(CCc2ccccc2)C1 (stereo not drawn),1.07
13,COC(=O)c1cc2c(c3c4ccccc4n(S(=O)(=O)c4ccc(OC)cc4)c13)C(=O)N(Cc1ccc(C)cc1)C2,0.959
14,CC(=O)C1=C2C=CCCN2C(=O)NC1c1ccc(OC(F)(F)F)c(F)c1 (stereo not drawn),0.786
15,CC(C)C1=NCCNC2=C1C(c1ccccc1)N(c1ccccc1)C2=O (stereo not drawn),1.03
16,C=CCN1C(=O)C2=C(C(c3ccccc3)=NCCN2C)C1c1ccccc1 (stereo not drawn),0.959
17,C=CCN1C(=O)C2=C(C(C)=NCCN2)C1c1ccc(C)cc1 (stereo not drawn),0.961
18,Cc1cc(C)cc(-n2nc(CC(C)C)c3c2C(=O)NC3c2ccccc2)c1 (stereo not drawn),0.992
19,COCOc1cc(C)cc(OCOC)c1C(=O)c1c(C)c(OC)cc(-c2cc(OC)c(C)c(C(=O)c3c(OCOC)cc(C)cc3OCOC)c2OCOC)c1OCOC,1.11
20,COC(=O)C1=C(C)N(Cc2ccc(C(F)(F)F)cc2)C(=S)NC1c1cccc(Cl)c1 (stereo not drawn),0.826
